# From patent publication US4318847A, “Physiologically active tetrapeptides” (Zaidan Hojin Biseibutsu Kagaku Kenkyu Kai, priority 1979, dated 1982)
# At least one peptide structure holds a part that was inferred or is arguable (an end, a ring closure or a residue). Where a SMILES comes first, the peptide text is derived from it. The star is where a group is joined. X1 = CC(C)C[C@@H](N)[C@H](O)C(=O)*
# How the values were obtained:
# [1] = biological target: glycylprolylleucine tripeptidylaminopeptidase (Gly-Pro-Leu-AP); assay: Gly-Pro-Leu-AP inhibition assay; assay type: biochemical; details: enzyme from cell membrane fraction of rat liver, Hanks solution pH 7.2, 37° C., 30 minutes
# Experimental: According to the method of Aoyagi et al. (T. Aoyagi et al: BIOCHIMICA ET BIOPHYSICA ACTA 452, 131-143(1976)), after a reaction mixture consisting of 0.25 ml of 2 mM glycyl-L-α-prolyl-L-α-leucyl-β-naphthylamide (Buchem Fine Chemicals Co.), 0.6 ml of the Hanks solution, pH 7.2, and 0.1 ml of an aqueous test solution was kept at 37° C. for 3 minutes, 0.05 ml of a Gly-Pro-Leu-AP that was purified from the cell membrane fraction of the rat liver was added and the reaction was carried out at 37° C. for 30 minutes. The same procedure as described in (1) was used for calculation of the inhibition percentage.
# The Hanks solution listed above was prepared by dissolving 8.0 g sodium chloride, 0.4 g potassium chloride, 0.14 g calcium chloride, 0.10 g magnesium chloride, 0.06 g disodium-monohydrogen phosphate, 0.06 g monopotassium dihydrogen phosphate, 0.10 g magnesium sulfate and 1.0 g glucose in 1 liter of distilled water and adjusting the solution to pH 7.2 with solid sodium bicarbonate (about 350 mg).
# [2] = biological target: glycylhistidyllysine tripeptidylaminopeptidase (Gly-His-Lys-AP); assay: Gly-His-Lys-AP inhibition assay; assay type: biochemical; details: enzyme from FM3A cells (mouse mammary tumor), Hanks solution pH 7.2, 37° C., 30 minutes
# Experimental: For enzyme assay, 0.25 ml of 0.5 mM glycyl-L-α-histidyl-L-α-lysyl-β-naphthylamide, 0.62 ml of the Hanks solution, pH 7.2, and 0.1 ml of an aqueous solution of a substance to be tested were combined and maintained at 37° C. for 3 minutes. Gly-His-Lys-AP solution (0.03 ml) which was purified from the FM3A cells (a line of culture cells derived from mouse mammary tumor) by the method described in the reference of (4) was added to the solution and incubated at 37° C. for 30 minutes. The inhibition percentage was calculated as shown in (1).
# Gly-His-Lys -β-naphthylamide used above was prepared as follows: to a solution containing 1 g of Gly-His-Lys-acetate (Buchem Fine Chemicals Co.) and 3.0 g of sodium bicarbonate in 60 ml of distilled water, 2.13 ml of Z-Cl was added dropwise under cooling with ice and then stirred for 3 hours. The same treatment as detailed above in Experiment 1-(7) was performed to give 605.8 mg of the Z-derivative of the tripeptide. This Z-derivative of the tripeptide and 117 mg of β-naphthylamine were condensed as described in Experiment (1-(2) to yield 600 mg of a solid material. The solid material was dissolved in 10 ml of a solvent mixture of acetic acid and water (1/1) and then shaken overnight together with 30 mg of palladium-carbon in the presence of hydrogen (4 atmospheres). The removal of the catalyst followed by evaporation of the solvent under reduced pressure provided 200 mg of Gly-His-Lys-β-naphthylamide.
SMILES,IC/50 Gly--Pro--Leu--AP: amount of the peptide to inhibit the intact activity of the target enzyme by 50% [1],IC/50 Gly--His--Lys--AP: amount of the peptide to inhibit the intact activity of the target enzyme by 50% [2]
CC(C)C[C@@H](N)[C@H](O)C(=O)N[C@@H](C)C(=O)N[C@@H](C)C(=O)N[C@@H](CC(=O)O)C(=O)O [X--Ala--Ala--Asp],> 100 µg/mL,> 100 µg/mL
CC(C)C[C@@H](N)[C@H](O)C(=O)N[C@@H](CC(=O)O)C(=O)O [X--Asp],> 100 µg/mL,> 100 µg/mL
"CC(C)C[C@H](NC(=O)[C@@H](O)[C@H](N)CC(C)C)C(=O)N[C@H](C(=O)N[C@@H](CC(=O)O)C(=O)O)C(C)C [X--Leu--Val--Asp, (2S,3R)-AHMHA-Leu-Val-Asp]",2.5 µg/mL,0.8 µg/mL
"CC(C)C[C@@H](N)[C@H](O)C(=O)N[C@@H](CCCCN)C(=O)N[C@H](C(=O)N[C@@H](CC(=O)O)C(=O)O)C(C)C [X--Lys--Val--Asp, (2S,3R)-AHMHA-Lys-Val-Asp]",0.25 µg/mL,0.4 µg/mL
"CC(C)C[C@@H](N)[C@H](O)C(=O)N[C@@H](CCCCN)C(=O)N[C@H](C(=O)N[C@H](C(=O)O)C(C)C)C(C)C [X--Lys--Val--Val, (2S,3R)-AHMHA-Lys-Val-Val]",0.01 µg/mL,0.08 µg/mL
CC(C)C[C@@H](N)[C@H](O)C(=O)N1CCC[C@H]1C(=O)O [X--Pro],8.6 µg/mL,56 µg/mL
"CC(C)C[C@@H](N)[C@H](O)C(=O)N[C@H](C(=O)N[C@H](C(=O)N[C@@H](CC(=O)O)C(=O)O)C(C)C)[C@@H](C)O [X--Thr--Val--Asp, (2S,3R)-AHMHA-Thr-Val-Asp]",0.2 µg/mL,1.0 µg/mL
CC(C)C[C@@H](N)[C@H](O)C(=O)N[C@H](C(=O)N[C@@H](CC(=O)O)C(=O)O)C(C)C [X--Val--Asp],7.2 µg/mL,14 µg/mL
"CC(C)C[C@H](NC(=O)[C@@H](NC(=O)[C@@H](O)[C@H](N)CC(C)C)C(C)C)C(=O)N[C@@H](CC(=O)O)C(=O)O [X--Val--Leu--Asp, (2S,3R)-AHMHA-Val-Leu-Asp]",0.2 µg/mL,0.16 µg/mL
"CC(C)C[C@@H](N)[C@H](O)C(=O)N[C@H](C(=O)N[C@@H](CCCCN)C(=O)N[C@@H](CC(=O)O)C(=O)O)C(C)C [X--Val--Lys--Asp, (2S,3R)-AHMHA-Val-Lys-Asp]",1.0 µg/mL,1.4 µg/mL
"CC(C)C[C@@H](N)[C@H](O)C(=O)N[C@H](C(=O)N[C@H](C(=O)N[C@@H](CC(=O)O)C(=O)O)[C@@H](C)O)C(C)C [X--Val--Thr--Asp, (2S,3R)-AHMHA-Val-Thr-Asp]",0.87 µg/mL,2 µg/mL
"CC(C)C[C@@H](N)[C@H](O)C(=O)N[C@H](C(=O)N[C@H](C(=O)N[C@@H](Cc1ccccc1)C(=O)O)[C@@H](C)O)C(C)C [X--Val--Thr--Phe, (2S,3R)-AHMHA-Val-Thr-Phe]",0.035 µg/mL,0.08 µg/mL
"CC(C)C[C@@H](N)[C@H](O)C(=O)N[C@H](C(=O)N[C@H](C(=O)N[C@@H](CCCNC(=N)N)C(=O)O)C(C)C)C(C)C [X--Val--Val-- Arg, (2S,3R)-AHMHA-Val-Val-Arg]",0.1 µg/mL,18 µg/mL
"CC(C)C[C@@H](N)[C@H](O)C(=O)N[C@H](C(=O)N[C@H](C(=O)N[C@@H](CCC(=O)O)C(=O)O)C(C)C)C(C)C [X--Val--Val--Glu, reference compound]",0.1 µg/mL,0.7 µg/mL
"CC(C)C[C@@H](N)[C@H](O)C(=O)N[C@H](C(=O)N[C@H](C(=O)N[C@@H](CCCCN)C(=O)O)C(C)C)C(C)C [X--Val--Val--Lys, (2S,3R)-AHMHA-Val-Val-Lys]",0.4 µg/mL,18.5 µg/mL
"CC(C)C[C@@H](N)[C@H](O)C(=O)N[C@H](C(=O)N[C@H](C(=O)N[C@@H](Cc1ccccc1)C(=O)O)C(C)C)C(C)C [X--Val--Val--Phe, (2S,3R)-AHMHA-Val-Val-Phe]",0.05 µg/mL,1.1 µg/mL
"CC(C)C[C@@H](N)[C@H](O)C(=O)N[C@H](C(=O)N[C@H](C(=O)N1CCC[C@H]1C(=O)O)C(C)C)C(C)C [X--Val--Val--Pro, (2S,3R)-AHMHA-Val-Val-Pro]",0.06 µg/mL,0.06 µg/mL
"CC(C)C[C@@H](N)[C@H](O)C(=O)N[C@H](C(=O)N[C@H](C(=O)N[C@H](C(=O)O)[C@@H](C)O)C(C)C)C(C)C [X--Val--Val--Thr, (2S,3R)-AHMHA-Val-Val-Thr]",0.1 µg/mL,1.5 µg/mL
"CC(C)C[C@@H](N)[C@H](O)C(=O)N[C@H](C(=O)N[C@H](C(=O)N[C@H](C(=O)O)C(C)C)C(C)C)C(C)C [X--Val--Val--Val, (2S,3R)-AHMHA-Val-Val-Val]",0.04 µg/mL,0.91 µg/mL
CC(C)C[C@@H](N)[C@H](O)C(=O)N[C@H](C(=O)N[C@H](C(=O)N[C@H](C(=O)N[C@@H](CC(=O)O)C(=O)O)C(C)C)C(C)C)C(C)C [X--Val--Val--Val--Asp] (X1-VVVD-OH),0.04 µg/mL,0.1 µg/mL
CC(C)C[C@@H](N)[C@H](O)C(=O)N[C@H](C(=O)N[C@H](C(=O)O)C(C)C)C(C)C [X--Val--Val],0.2 µg/mL,11.5 µg/mL
CC(C)C[C@@H](N)[C@H](O)C(=O)N[C@H](C(=O)O)C(C)C [X--Val],12 µg/mL,6.7 µg/mL
